The source gives no read counts; variants with many changes may rest on few reads.
B1: LINE1-mini (parent)
chain: GGCAGAGCUCAACACAGCGUGGCAAAGUGGCUGUGGCUAGACUGCC

Variants of: B1
Assay: self-cleavage, relative activity (ratio to wild type); higher = more cleavage; in vitro, sequencing; the parent is a self-cleaving ribozyme

Question: With AGCAGAGCUCAACCCAACGUGGCAAAGUGGCUGUGGCUAGACUGCC as the variant, how does the self-cleavage read?
Answer: 0.02

Question: Which self-cleavage does the source give for AGCAGCGCUCAACACAGCGUGGCGAAGUGGCUGUGGCUAGACUGCC here?
Answer: 0.5

Question: Which self-cleavage does the source give for AGCAGAGCUCAACUCAGCGUUGCAAAGUGGCUUUGGCUAGUCUGCC here?
Answer: 0.19

Question: For AGCAGAGUUCAACACAGGGUGGCAAAGUGGUUGUGGCUAGACUGUC, which self-cleavage is on record?
Answer: 0.45

Question: Which self-cleavage does the source give for AGCAGAGCUCGAUACAGCGUGGCAAAGUCGCUGUAGCUGGACUGUC here?
Answer: 0.06

Question: With AGCAGAGCUCUACACAGCGUGGCAAAAUUGCUGUAGCUAGACUGCC as the variant, how does the self-cleavage read?
Answer: 0.01

Question: For AGAAGAGCUCAACAACGCUUGGCAAAGUGGCUGUGGCUAGACUGUC, which self-cleavage is on record?
Answer: 0.36

Question: Which self-cleavage does the source give for AGCAGCGCACAACACACCGUGGCAAAGUGGCAGUGGCUAGACUGCC here?
Answer: 0.11

Question: Which self-cleavage does the source give for AGCAGAGCUCUAAAUCGCGUGGCAAAGUGACUGUGGCUAGACUGCC here?
Answer: 0.03

Question: With AGCAGAGCUAAACACAGCGUGGCAAAGUGGCUUAGGCAAGACUGCC as the variant, how does the self-cleavage read?
Answer: 0.04

Question: For AGCAGAGCUCGACACAGCGUGGCAAAGUGGCUGUGGGUAGACUGCC, which self-cleavage is on record?
Answer: 0.01

Question: With AGCAGAGCUCGACACAGCGUGGCAAAGUGGCUGUGGUUAGACUGCC as the variant, how does the self-cleavage read?
Answer: 0.01

Question: Which self-cleavage does the source give for AGCAGAGCUGUACACAUCGUGGCAAAGUGGCUGUGGAUAGACUGCC here?
Answer: 0.01

Question: With AGCAGAGCUAAACACAGCGUGGCUAAGUGGCUGUGGUUAGACUGCC as the variant, how does the self-cleavage read?
Answer: 0.05

Question: Which self-cleavage does the source give for AGCGGAGCUCAACACAGCGUGGCAAAGUGGCUCUUGCUAGACUGCC here?
Answer: 0.07

Question: Which self-cleavage does the source give for AGCAGAGCUUAACACAGCGUGGCAAAGUGGCUGUGGCUACACUGCC here?
Answer: 0.03

Question: Which self-cleavage does the source give for AGCAGAGCUAAACACAGAGUGGCAAAGUGGCUGUGGCUAGACUGCC here?
Answer: 0.12

Question: With AGCAGAGCUCAGCCCAGCGUGACAAAGUGACUGUGGCUAGACUGCC as the variant, how does the self-cleavage read?
Answer: 0.01

Question: Which self-cleavage does the source give for AGCAGGGCUCAACACAGCGUGGCAAAGUGGUUGUGGCUAGGGUGCC here?
Answer: 0.02

Question: With AGCAGAGCUCAACACUGCAUCGCAAAGUGGCGGUGGCUAGACUGCC as the variant, how does the self-cleavage read?
Answer: 0.09

Question: For AGCAGAGCUCGACACAGCGUGGCACCUUGGCUGUGGCUAGACUGCC, which self-cleavage is on record?
Answer: 0.03

Question: Which self-cleavage does the source give for AGCAGAGCUAAACACAGCGUGGCAAAGGGGCUGUGGUUAGACUGCC here?
Answer: 0.02

Question: With AGCAGAGCUCAACUCAGCUUGUCAAGGUGGCUGUGGCGAGACUGCC as the variant, how does the self-cleavage read?
Answer: 0.04

Question: With AGUAGAGCGCAACACAGCGUGGCAAAGUGGCUGUGGCUAGACUGCC as the variant, how does the self-cleavage read?
Answer: 0.92

Question: For AGCAGCACUCAACACAGCGUGUCAAAGUGGCUGAGGCUAGACUUCC, which self-cleavage is on record?
Answer: 0.07

Question: Which self-cleavage does the source give for AGCUGAGCCCAAAACAGCGUGGCAAAGUGGCUGUGGCUAGACUGUC here?
Answer: 0.05

Question: With AGCAGAGCUCAACACGGCGUGGAAAAGUGGCUGUGGCUAGACUGCC as the variant, how does the self-cleavage read?
Answer: 0.32

Question: With AGCAGAGCUCUACACAGGGUGCCAAAGUGGCUGUGGCUAGAUUGCC as the variant, how does the self-cleavage read?
Answer: 0.01

Question: Which self-cleavage does the source give for AGCAGCGCUCACCACAGCGUGGCAACGUGGCUGUGGCUAGACAGCC here?
Answer: 0

Question: Which self-cleavage does the source give for AGCAGCGCUCAACACAGCGUGGCAAAGUGGCUGUACCUAGACUGCC here?
Answer: 0.05

Question: With AGCAGCGAUCAACACAGCGUGGCAAUGUGGCUGUGGCUAGACUGCC as the variant, how does the self-cleavage read?
Answer: 0.4

Question: For AGCAGCGCUCAACACAGCGUGGCAAAGUGGCUGUGGCAAGAGUGCC, which self-cleavage is on record?
Answer: 0.01

Question: With AGGAGAGCUCAACACAGCGUGGCAAAUUUGCUGUGGCUAGACUGCC as the variant, how does the self-cleavage read?
Answer: 0.44

Question: For AGCAGAGCUAAACGCAGCGUGGCAAAGUCGCUCUGGCUAGACUGCC, which self-cleavage is on record?
Answer: 0.04

Question: With AGCAGAGAUCAACACAGCGUGGCAAAGUGGUUGUGGCUAGACUACC as the variant, how does the self-cleavage read?
Answer: 0.37

Question: With AGCAGAGUUCAACACAGCGUGGCGCAGUGGCUGUGGCUAGACUGCC as the variant, how does the self-cleavage read?
Answer: 2.17

Question: Which self-cleavage does the source give for AGCGGAGCUCAACACCGCGUGGCAUAGUGGCUGUGGCUAGACUGCC here?
Answer: 0.08

Question: With AGCAGAGCUGCACACAGCGUGGCAAAGUGGCUGUGGCUAGACUGCC as the variant, how does the self-cleavage read?
Answer: 0.02

Question: Which self-cleavage does the source give for AGCAGAGAUCAACACAGCGCCGCAAAGUGGCUGUGGCUAGACUGCC here?
Answer: 0.18

Question: For AGCAGAGCUUAACACAGCGUGGCAAAGUGGCUCUGGGUAGACUGCC, which self-cleavage is on record?
Answer: 0.04

Question: Which self-cleavage does the source give for AGCAGAGCUCAACACAGCGUGGCAACGGGGCUGUGGCUAGACUGCC here?
Answer: 0.3

Question: For AGCGGAGCUCAACACAGCGUGGCAAAGUGGCUGUGGCUAGACUUCC, which self-cleavage is on record?
Answer: 0.09

Question: Which self-cleavage does the source give for AGCAGAGGUCAGCACAGCGUUGCAAAGUGGCUGUGUCUAGACUGCC here?
Answer: 0.06

Question: With AGCAGAGCUGAACACAGCGUGGCAAAAUGGCUGUGGCUAGACUGCC as the variant, how does the self-cleavage read?
Answer: 0.09

Question: With AGCAGAGCUCAACGCAGCGUGGCAAAGUGGCUGUGGCUAGACUGCG as the variant, how does the self-cleavage read?
Answer: 1.07

Question: With AGCGGAGCUCAACACAGCGUGCCAAAGUGGCUGUGGCUAGACUGCC as the variant, how does the self-cleavage read?
Answer: 0.1

Question: For AGUAGAGCUCAAAACAGCGUAGCAAAGUGGCUGAGGCUAGACUGCG, which self-cleavage is on record?
Answer: 1.37

Question: With AGCAGAGCUAAACACAGCGUGGCAAAGUGUCUGUGGCUAGACUGCC as the variant, how does the self-cleavage read?
Answer: 0.06

Question: For AGAAUAGCUCAAUACAGCGUGGCAAAGUGGCUGUGGCUAGACUGCC, which self-cleavage is on record?
Answer: 2.66

Question: Which self-cleavage does the source give for AGCUGAGCUCAACACAGCGCGGCAAAGUGGCUGAUGCUAGACUGCC here?
Answer: 0.08

Question: Which self-cleavage does the source give for AGCAGAGCUCGACACAGCGUGGCAAAAUGGCUGUGGCUAGACUGCC here?
Answer: 0.04

Question: Which self-cleavage does the source give for AGCAGAGCUCAACGCAACGUGGCAAAGCGGCUGUGGCUAGACUGCC here?
Answer: 0.04

Question: For AGCAGAGGUCAGCACAGCGUGGUAAAGUGGCUGUGGCUAGACUGCC, which self-cleavage is on record?
Answer: 0.19

Question: For AGCCUAGCUCAACACAUCGUGGCAUAAUGGCAGUGGCUAGACUGCC, which self-cleavage is on record?
Answer: 0.18

Question: With AGCAGAGCUCAGCACAGCGUGGCAAAGUGGCUGUAGCUAGACUGCC as the variant, how does the self-cleavage read?
Answer: 0.04

Question: With AGCAGAGAUCAACACACCGUGGCAAAGUGGCUGUGGCGAGACUGCC as the variant, how does the self-cleavage read?
Answer: 0.05
